Assay results taken from PubChem BioAssay AID488969 (Vanderbilt High Throughput Screening Facility, 2010).
In all, about 110,000 compounds were measured (“z-score”: median about -0.1, highest 2% from about 2 on). The list shows a part of the results. Activity calls are given as the source filed them.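 How the source made its calls: active means z-score in the third read window above 3 or below -3; inactive means the rest.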

These molecules were tested against Metabotropic glutamate receptor 8 (Rattus norvegicus) (UniProt P70579) (assay: mGluR8 Gi/Go-coupled signaling modulation – cell-based, rat, thallium flux, HTS, primary screen (AID 488969)). Details: HEK293 rat mGluR8, GIRK (G protein-gated inwardly rectifying potassium channel) thallium flux, FluoZin2; at 10 µM; stronger effect = higher value; submaximal glutamate (EC20) added with thallium.
Chain of UniProt P70579 (P70579 whole entry, looked up): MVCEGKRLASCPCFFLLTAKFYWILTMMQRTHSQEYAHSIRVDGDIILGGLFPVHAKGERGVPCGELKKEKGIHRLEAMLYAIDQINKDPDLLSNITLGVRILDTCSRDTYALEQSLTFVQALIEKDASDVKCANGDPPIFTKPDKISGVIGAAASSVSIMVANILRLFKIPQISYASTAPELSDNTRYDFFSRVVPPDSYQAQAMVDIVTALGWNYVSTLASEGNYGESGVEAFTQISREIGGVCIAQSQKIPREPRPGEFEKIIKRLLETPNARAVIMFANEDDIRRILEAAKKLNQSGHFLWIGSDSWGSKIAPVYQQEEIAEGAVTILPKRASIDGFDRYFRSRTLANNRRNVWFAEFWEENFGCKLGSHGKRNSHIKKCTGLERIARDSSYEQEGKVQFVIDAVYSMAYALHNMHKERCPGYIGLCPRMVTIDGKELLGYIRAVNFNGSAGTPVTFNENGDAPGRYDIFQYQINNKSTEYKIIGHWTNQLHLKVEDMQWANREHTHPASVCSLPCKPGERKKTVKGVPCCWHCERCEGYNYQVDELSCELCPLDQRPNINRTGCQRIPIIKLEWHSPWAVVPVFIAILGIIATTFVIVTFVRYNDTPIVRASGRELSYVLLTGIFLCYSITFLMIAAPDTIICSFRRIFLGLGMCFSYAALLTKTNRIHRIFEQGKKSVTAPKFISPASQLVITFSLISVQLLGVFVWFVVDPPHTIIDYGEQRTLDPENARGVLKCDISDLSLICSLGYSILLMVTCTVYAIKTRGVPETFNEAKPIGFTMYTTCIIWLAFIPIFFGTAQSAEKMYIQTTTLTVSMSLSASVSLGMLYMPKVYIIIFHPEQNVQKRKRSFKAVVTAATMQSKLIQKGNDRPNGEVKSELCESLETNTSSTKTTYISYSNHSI

Row | Compound | z-score
1 | O=C(c1ccccc1)N(Cc1ccco1)C1CCS(=O)(=O)C1 (centres undefined) | 0.334
2 | O=C(OCCN1C(=O)c2ccccc2C1=O)c1cc(=O)[nH]c2ccccc12 | -0.212
3 | COc1ccc(C2CC(c3ccccc3)Nc3nc(NC(=O)c4cccs4)nn32)cc1 (centres undefined) | -0.679
4 | CCOc1ccccc1NC(=O)CN(C)S(=O)(=O)c1ccc(OC)c(C)c1 | -0.359
5 | O=CN1CCc2scc[n+]2-c2ccccc21 | -0.0895
6 | Cc1cc(C(=O)NN=C2C3CC4CC(C3)CC2C4)c2ccccc2n1 | -0.0938
7 | CC(=O)N(c1ccc(C(C)C)cc1)C1C=CS(=O)(=O)C1 (centres undefined) | 0.709
8 | Cc1c(NS(=O)(=O)c2cccc3nsnc23)c(=O)n(-c2ccccc2)n1C | 0.0932
9 | COCCN(C(=S)Nc1cccc(OC)c1)C1CCN(C(C)=O)CC1 | 0.263
10 | O=C(CN1CCOCC1)Nc1cccc(C(=O)Nc2cccc(C(F)(F)F)c2)c1 | -0.724
11 | Cc1ccc(CNC(=O)CSc2ncccn2)cc1 | 0.401
12 | O=C(NN1C(=O)/C(=C/c2cccnc2)SC1=S)C(c1ccccc1)c1ccccc1 | -0.0669
13 | COc1ccc(C2CC(=O)c3cnc(NC(=O)c4cccc(OC)c4)nc3C2)cc1 (centres undefined) | -0.697
14 | COCCN(C(=O)c1csnn1)C(C(=O)NC(C)(C)C)c1cccc(OC)c1 (centres undefined) | -0.202
15 | Cc1c(C(=O)O)sc2nc3n(c(=O)c12)CCC(C)CC3 (centres undefined) | 0.233
16 | COc1ccc(N(CC(=O)Nc2ccccc2SC)S(C)(=O)=O)cc1OC | 0.573
17 | Cc1nc2ccc(NS(=O)(=O)c3ccc4c(c3)OCCO4)cc2s1 | active: 3.48
18 | O=C(OCC#CCSc1nnc(-c2ccncc2)o1)c1sc2ccccc2c1Cl | 2.87
19 | CCc1ccc2c(c1)C1(NN=C(c3cccc4ccccc34)S1)C(=O)N2 (centres undefined) | active: 4.02
20 | O=S(=O)(NCc1cc(-c2ccccc2Cl)no1)c1ccccc1 | -0.26
21 | Cc1ccc(NC(=O)CN2C(=O)NC(Cc3ccccc3)C2=O)cc1 (centres undefined) | 0.124
22 | NC(=O)C1CC(=O)N(c2ccc(OCC(=O)Nc3cccc(C(F)(F)F)c3)cc2)C1 (centres undefined) | -0.403
23 | C=CCN1CN(S(=O)(=O)c2cccs2)c2nc3ccccc3nc21 | -0.865
24 | CCN1C(C(=O)c2ccccc2)=C(Nc2ccccc2C)c2ccccc2S1(=O)=O | -0.411
25 | COc1cc(NC(=O)c2ccco2)ccc1NC(=O)C(C)C | 0.332
26 | CCN(CC)CCNC(=O)c1c(C)n(-c2ccccc2)c2cc(Br)c(OC)cc12 | 2.84
27 | C/C(=N/NC(=O)c1ccccn1)c1ccco1 | -0.0123
28 | O=C(C[n+]1cc(-c2ccc(Cl)c(Cl)c2)n2c1CCC2)OCc1ccccc1 | 0.0701
29 | CC(=O)c1c(C)oc2ccc(N(C(C)=O)S(=O)(=O)c3ccc(Cl)c([N+](=O)[O-])c3)cc12 | 0.653
